Sequences with one replicate were seen in a single cluster, so their values are uncertain.
Tested on: ATP
Assay: switch fluorescence ratio, 500 uM ATP over buffer (Cy3 cluster intensity, sum of 5 cycles each) (fold (ratio)); higher = stronger signal-on switching upon ATP binding; sequences stand for … in TCGTCGGCAGCGTCAGATGTGTATAAGAGACAGTTTTTTTTTTTTTTTTTTTTTTTTT…TC
Settings: aptamer strand: ATP DNA aptamer (quencher-CACCTGGGGGAGTATTGCGGAGGAAGG + anchor), 100 nM annealed; ATP concentration: 500 uM; one replicate
How it was run: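 The fluorescence ratio divides summed target-cycle Cy3 intensity by summed buffer-cycle Cy3 intensity for each cluster and is averaged per switch-domain sequence. Cy3-labelled switching-strand clusters on a modified Illumina MiSeq flow-cell were annealed to 100 nM quencher-labelled ATP aptamer, then imaged in selection buffer and again after 15 min with 500 uM ATP at 22 °C. Five such cycles were run, with NaOH stripping and re-annealing between them, and clusters outside 100-1000 RFU were excluded.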
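Note: ATP exposure 15 min at 22 °C before imaging.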

Row | Sequence | switch fluorescence ratio
1 | GATTAATTCC | 1.04
2 | TTCGTAGGT | 0.974
3 | AGGCATCGGG | 1.02
4 | ACGGACGGTC | 0.933
5 | TATATTTA | 1.02
6 | TCTTTTAGTG | 0.986
7 | CGACCCGGCG | 1.07
8 | TTCTCATCGG | 1
9 | AAAATCATTT | 1
10 | TTCATTGCTC | 1
11 | GGAGACTGG | 1.02
12 | AGTTTCTCTT | 1.02
13 | TGCGTCACCG | 0.978
14 | TGCATCGATA | 1.01
15 | TCTGGGATAG | 1.17
16 | TAGAATAACA | 0.99
17 | CGACATCACG | 1.4
18 | TAAACTGTAT | 1.07
19 | GGTGCTGGT | 1.01
20 | GGTACCTAGC | 1.02
21 | GTATTTAATT | 1
22 | GACTGAATAG | 1.02
23 | ATGAGTACG | 1
24 | AGAGCTCTAA | 0.993
25 | TGATGAGCTA | 0.986
26 | AAGAAAGAAG | 1.02

Row | Sequence | switch fluorescence ratio
27 | GCGACAGGCG | 1.05
28 | GTAAGCAAGT | 1.13
29 | GAATTGCACG | 1.12
30 | CTTATTGGG | 1.02
31 | GTCTTTAAAA | 0.953
32 | TAGTAATAGC | 1.09
33 | CGCTACTCGG | 1.64
34 | ATAGAGATT | 1.04
35 | TAGAAACAGC | 1
36 | GTCCGTGGGA | 0.988
37 | ATTGGTCCAA | 1.02
38 | AGCCAATTAA | 1.03
39 | CGTGTGCCGG | 0.971
40 | ATGTTCTAAT | 0.987
41 | TGGCGAGA | 1.01
42 | TGTATGGATA | 0.999
43 | CGTGACTCCG | 1.2
44 | GTGGTTGAA | 0.985
45 | GATGTAGAAT | 0.996
46 | TATGCGCTCG | 0.968
47 | TTCCTTACTC | 1.91
48 | ACTGGTTTAT | 1.06
49 | TCTCGGATTG | 0.993
50 | AGCAAAG | 1.33
51 | TAAGAACCA | 1.08
52 | CTCCTCATTG | 1.42

Row | Sequence | switch fluorescence ratio
53 | CTGTTCGTTC | 0.973
54 | AGGGCCAGGA | 0.993
55 | CGATTTGTTG | 0.998
56 | TAACGTTGGC | 1.15
57 | TCATGTCACT | 1.05
58 | ACTTTCAG | 1.04
59 | CTATGCAGAC | 4.47
60 | GGAGGGAAGG | 1.01
61 | ATAACCCGAG | 1.03
62 | CATTATGTAG | 1.01
63 | TCGCGCTGAG | 1.02
64 | TGCATAGTGT | 0.971
65 | GGCGCGATTT | 1.1
66 | CGGCAGCGCT | 1.02
67 | TTGCACGCA | 1.08
68 | CCAAAGAAGC | 0.977
69 | GCGATCAGCC | 1.03
70 | AAAGGGATCG | 0.999
71 | TAGTTGTTAG | 0.915
72 | GCATGCGTCT | 0.978
73 | ATGGAGGATT | 1.04
74 | GATTTAAAAC | 1.01
75 | TGGGAGAGG | 0.993
76 | TTGCAGCCGT | 1.03
77 | CTTTTCCTGG | 0.994
78 | AGCAATTGGA | 1.17

Row | Sequence | switch fluorescence ratio
79 | GCACTGTAAA | 1.06
80 | ACAACAGCGG | 1.04
81 | TGCTTTCATA | 1.02
82 | ATGAACTTGA | 1.04
83 | TTTTTGCCCA | 1.02
84 | CCTCGGGGTA | 1.01
85 | AACACTGAC | 1.18
86 | ACTAGATTTT | 1.02
87 | TCCGTTCTTC | 0.983
88 | TGCTAGTTAT | 1.03
89 | TTCAATCTGG | 1
90 | AGGTTGAATC | 0.98
91 | CTGTGAATAA | 1.02
92 | CTTTTTAAAA | 0.956
93 | CGCTTCTGCG | 0.885
94 | TGTCAGAAGG | 1.01
95 | CGCCGGGATG | 1.08
96 | GTCTTTCTGC | 0.869
97 | GGTACAGTGG | 1
98 | TCTTGCTGAC | 1.05
99 | TGCGCTGCCT | 0.966
100 | TTTCAAGGAA | 0.993
101 | GGCAATTCGG | 0.999
102 | AGGGTAACTA | 0.996
103 | TCTTTCAATA | 2.28
104 | GATTTGTTGA | 1.01

Row | Sequence | switch fluorescence ratio
105 | TAAAGGTAAG | 0.952
106 | TTACACATTT | 1.02
107 | CTGATGGTGT | 1.07
108 | TCTGAGTAAG | 0.973
109 | TATCCAAGGT | 1.04
110 | TCTCCCGATA | 1.89
111 | GTTTAGATGG | 1
112 | ATGGGAAGTG | 1.05
113 | TATCGCTGTT | 0.998
114 | GCATGAGATG | 0.963
115 | CTACGCGTCT | 1.07
116 | CACTTGCCGT | 1.05
117 | AAGGCCGTGT | 1
118 | GATGACGCGC | 1.52
119 | TGACACAGGC | 1.05
120 | AATGTCCAAT | 1.02
121 | ACGGGGGCAA | 1.57
122 | CACGGGACGG | 1.21
123 | AAAATAGTTC | 0.957
124 | TCATCATTAC | 1.26
125 | CGCTGATTGC | 1.25
126 | CAAAGAGACA | 1.01
127 | GGGTCTAAAC | 0.969
128 | AGTAGTTGTG | 0.995
129 | TTTTGTGATG | 1.03
130 | TCCCCAGCTG | 4

Row | Sequence | switch fluorescence ratio
131 | GTACTCATGT | 0.997
132 | GATGGGATTC | 0.986
133 | TTAAGAAAGG | 0.994
134 | TAAAGGTGGA | 0.986
135 | TGTGTTGCGG | 0.952
136 | CTTGGTCTCT | 1
137 | ATGAGATTT | 0.991
138 | TAAGAGGTTC | 0.985
139 | GTGAGGCTGC | 0.936
140 | GGTACAGAGA | 1.05
141 | TCAGAATTT | 1.02
142 | CTGAAGGGAG | 1.02
143 | ACTAAGGCGC | 0.993
144 | ATCTGAGTCG | 1
145 | GCGGTCGAGT | 0.956
146 | CAACTTACAC | 1.32
147 | CCCACGCTCA | 2.8
148 | AGGCGAGGGC | 1.04
149 | TGCTGAGTCC | 1.01
150 | TCGATTTACG | 0.924
151 | AGCACCCCGA | 1.17
152 | GCGCGTCTCG | 1
153 | TGGGGATGC | 0.954
154 | CTGACTCCCG | 1.4
155 | AGTGTAAAGT | 0.972
156 | ATTAGCCAAA | 0.99

Row | Sequence | switch fluorescence ratio
157 | TAATGTAGGC | 0.935
158 | ATTGGTTCTA | 1.07
159 | TAAGCACACG | 1.15
160 | GCAATGATTT | 1.05
161 | TCTAGGGAAA | 0.984
162 | ATGTTAAAAA | 1.04
163 | AATTGAAGGA | 1.02
164 | GTTGCTTATA | 0.969
165 | AGTTTGCAT | 0.963
166 | ATTTCGTGG | 0.967
167 | CTGAATATCA | 0.991
168 | TGAGGACTAC | 0.968
169 | GAGCTACGAC | 1.1
170 | CACCAAATCC | 1.07
171 | GGGGTCCTTG | 1.05
172 | AAATGACCGA | 1.18
173 | AGAACCTTCA | 2.71
174 | CATGTAAGT | 0.961
175 | TAATTTACAC | 1.06
176 | AACATGACGA | 1.4
177 | CGGAATCCTG | 1.03
178 | GACGTACGGT | 1.53
179 | ATATTAGGTG | 1.18
180 | CAGAGATGAC | 1.06
181 | AAAGACAGGA | 1.05
182 | ACGGTTACAC | 1.24

Row | Sequence | switch fluorescence ratio
183 | TATTTGGAGC | 1.02
184 | ATTCCTGAAG | 1.01
185 | TTGGGGATCT | 1.04
186 | GTATTGGGCG | 1.05
187 | CTACCTGCTT | 0.987
188 | CTTCGGTGT | 0.993
189 | ATAAGAAATT | 0.999
190 | CATCGTATCT | 1.03
191 | GACTAAGATC | 1.03
192 | GTATGATAGT | 0.972
193 | TGGAGATTTG | 1
194 | AGTAGGAGGG | 0.995
195 | TACCGGTTCT | 1.02
196 | GTGAGAAGCG | 0.991
197 | TCGAGAGAAG | 1.01
198 | ATGGCTCACC | 0.971
199 | TGGTTACCTG | 0.984
200 | CAGATGTTG | 1.05
201 | TCGGCTAGGA | 0.986

Reference: the supplement of paper PMC10126150
